From ChEMBL document CHEMBL4888484, “Replenishing the malaria drug discovery pipeline: Screening and hit evaluation of the MMV Hit Generation Library 1 (HGL1) against asexual blood stage Plasmodium falciparum ,using a nano luciferase reporter read-out” (2022) come the findings set out here.

Molecules are shown by their SMILES. About 540 (0.36%) of roughly 150,000 compounds showed an effect of 50% or more. The list shows a part of the results.

This test deals with Plasmodium falciparum. Kind of test: Primary screen in NF54 nanoGlo assay, in single point, at 2uM, 72h; a lower Z score goes with more inhibition. As to conditions: timepoint 72 hour. It counts as functional, Erythrocyte.
As usually defined, the % Inhibition is the drop in the measured response relative to a control, in per cent. `O=C(O)c1cc2cc(Cl)cc(-c3cc(NCCO)nc4[nH]ccc34)c2o1`: the “% Inhibition” value was -7% and the Z score came to 1.24.

On to `Cn1nccc1[C@@H]1CCCN1C(=O)Nc1cnn(-c2ccncc2)c1`, for which the “% Inhibition” value is recorded as -2% and the Z score is 0.31.

Consider `O=C(c1c(F)cccc1F)N1CC(n2nccn2)C1`, for which the “% Inhibition” value is -8% and the Z score came out at 0.95.

Take `CS(=O)(=O)c1ccc(-c2c[nH]c([C@@H]3COCCN3C3CCC3)n2)cc1`: the “% Inhibition” value is reported as -5% and the Z score is given as 0.77.

As for `Nc1ncc(CN2CC[C@@]3(CCCN(C(=O)CCC4CCCC4)C3)C2)cn1`, the “% Inhibition” value is reported as 13% and the Z score is -1.68.

As to `CNc1ncccc1C(=O)N[C@H]1CC(=O)N(Cc2cccc(F)c2)C1`, the “% Inhibition” value is -7% and the Z score is 0.72.

Take `FC(F)(F)c1ccnc(N2CCCOC3CCCC32)n1` (configuration not stated): the “% Inhibition” value is reported as -6% and the Z score is 0.5.

`Cc1ccc(C(=O)Nc2nc3ccccc3[nH]2)o1`: the “% Inhibition” value was -11% and the Z score is recorded as 1.82.

As for `OC1CN(Cc2cc(Cl)ccc2OC[C@@H](O)CN2CCCCCC2)C1`, the “% Inhibition” value turned out to be 9% and the Z score is -1.34.

Take `O=C(c1ccc(-c2nc3cccnc3n2C2CCCCC2)cc1)N1CCCCCC1`: the “% Inhibition” value is reported as -18% and the Z score stood at 2.42.

In the case of `Cc1c(Cl)cccc1NC(=O)c1nc(-n2ccnc2)ncc1Cl`, the “% Inhibition” value is reported as -1% and the Z score came out at 0.18.

Take `CCc1ccccc1NC(=O)Cn1cc(-c2ccccc2)c2ncn(CCOC)c(=O)c21`: the “% Inhibition” value stood at 3% and the Z score is -0.37.

Regarding `O=C1OC(N2C(=O)CC[C@H]2C(=O)Nc2cccc(C(F)(F)F)c2)c2ccccc21` (some centres not stated), the “% Inhibition” value is reported as 5% and the Z score was -0.6.

Regarding `CCOC1CC(N(C)C(=O)OC(C)(C)C)C12CCCC2` (configuration not stated), the “% Inhibition” value was 6% and the Z score was -0.85.

Take `Cc1nc(N2CCN(C(=O)c3cc(-c4ccccc4)[nH]n3)CC2)sc1C`: the “% Inhibition” value is listed as -13% and the Z score is reported as 1.86.

`Cc1c(NC(=O)N(C)Cc2nnc3n2CCOCC3)cnn1-c1ccccc1F`: the “% Inhibition” value was 1% and the Z score was -0.1.

As for `Cn1nc(C(=O)NCc2ccco2)c(=O)c2ccccc21`, the “% Inhibition” value is listed as -5% and the Z score came out at 0.64.

In the case of `O=C(Cc1cscn1)N1CC(c2ccccc2F)C1`, the “% Inhibition” value was -8% and the Z score amounted to 0.84.

For the compound `O=C(C[C@@H]1COC2(C1)CN(C(=O)c1ccc(OC(F)(F)F)cc1)C2)NCc1ccncc1`, the “% Inhibition” value is on record as -5% and the Z score turned out to be 0.84.

In the case of `Cn1nc(C(=O)NC2CCC(C(F)F)CC2)cc1C1CC1` (configuration not stated), the “% Inhibition” value was found to be 5% and the Z score is -0.94.

As to `CCN(C(=O)CCc1c[nH]c2ccccc12)C1CCOCC1`, the “% Inhibition” value is given as -10% and the Z score stood at 1.26.

As to `C[C@@H](c1nncn1C)n1cc(-c2cccc(S(C)(=O)=O)c2)nn1`, the “% Inhibition” value turned out to be 3% and the Z score is -0.31.

As for `Cn1nncc1S(=O)(=O)N(CCC#N)CC1CC1`, the “% Inhibition” value is given as -5% and the Z score stood at 1.03.

For `c1cc2cn[nH]c2cc1CNC[C@H]1CN(C2CC2)CCO1`, the “% Inhibition” value is reported as -7% and the Z score came out at 0.94.

Turning to `COc1cc(-c2cnnc(NCc3cc(C)no3)n2)cc(OC)c1OC`, the “% Inhibition” value was determined as 14% and the Z score is -1.85.

With `Cc1ccc(Cn2ccc(NC(=O)c3cc4nc(-c5ccco5)cc(C(F)(F)F)n4n3)n2)cc1`, the “% Inhibition” value is -8% and the Z score was 0.83.

Turning to `Cc1ccc(-c2cn[nH]c2[C@H]2CCCN(C(=O)CCn3cccn3)C2)cc1`, the “% Inhibition” value was -5% and the Z score came to 0.94.

Turning to `O=C(Nc1cn[nH]c1)Nc1nc(-c2ccccc2Cl)ns1`, the “% Inhibition” value was 1% and the Z score is on record as -0.09.

Consider `Cc1ccc(N2CC[C@H]3[C@H](CCC(=O)N3CCc3ccccc3)C2)nn1`, for which the “% Inhibition” value is recorded as -6% and the Z score was determined as 1.13.

Consider `Cn1ncc(Br)c1S(=O)(=O)Nc1cc(C(F)(F)F)ccn1`, for which the “% Inhibition” value is on record as -32% and the Z score was determined as 3.73.

With `Cc1ccc(S(=O)(=O)NC[C@H]2O[C@@H](CC(=O)NCc3ccc(F)cc3)[C@H](O)[C@@H]2O)cc1`, the “% Inhibition” value is recorded as 5% and the Z score is -0.74.

On to `O=C1Cc2cc(Nc3nccc(C(F)(F)F)n3)ccc2N1`, for which the “% Inhibition” value is on record as -21% and the Z score was found to be 2.57.

Consider `COCC1CN(C(=O)C(C)NC(=O)CC2CCCCC2)CC(C)O1` (configuration not stated), for which the “% Inhibition” value is recorded as 3% and the Z score is -0.74.

With `C[C@@](CO)(Cn1cnc2ccccc21)NS(=O)(=O)C1CC1`, the “% Inhibition” value is listed as -1% and the Z score is on record as 0.15.

For the compound `COc1ccc(-c2cn3ccn(-c4ccc(Cl)cc4)c(=O)c3n2)cc1OC`, the “% Inhibition” value was -6% and the Z score amounted to 0.84.

In the case of `COC[C@H]1CCCN1C[C@@H]1OC[C@H](NC(=O)c2ccc(C#N)cc2)[C@H]1O`, the “% Inhibition” value is listed as 9% and the Z score is listed as -1.07.

Regarding `O=C(c1ccc(Cl)s1)N1C[C@H]2CC[C@@H](C1)N(Cc1ccccn1)C2=O`, the “% Inhibition” value is listed as -6% and the Z score worked out at 1.05.

For `CCN(CC)[C@@H](CNc1ncncn1)c1ccco1`, the “% Inhibition” value is 6% and the Z score is -1.13.

Regarding `Cc1cc2n(n1)CCCN2C(=O)Nc1ccc(F)c(Cl)c1`, the “% Inhibition” value came to 4% and the Z score was -0.66.

Take `COc1nc(C)c(Br)cc1-c1noc(Cc2cnccc2C)n1`: the “% Inhibition” value is reported as 3% and the Z score is reported as -0.28.

Consider `Cc1cc(N2CCNC(=O)[C@@H]2C(C)C)nc(C2CC2)n1`, for which the “% Inhibition” value is on record as 3% and the Z score was -0.49.
